# From PMC4336329 (PLoS ONE, 2015)
# Hit rate of the full screen: of about 310,000 compounds, about 14,000 (4.5%) showed an effect of 50% or more. Effects have a minus sign here. The list shows a part of the results.
# Target: human ether-à-go-go-related gene (hERG) potassium channel (human, UniProt Q12809)
# Assay: primary screen, population patch clamp on CHO cells stably expressing hERG
# 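Also: peak tail current of the secondary pulse compared with the same well before compound.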
# Sequence of human ether-à-go-go-related gene (hERG) potassium channel (Q12809 whole entry, looked up): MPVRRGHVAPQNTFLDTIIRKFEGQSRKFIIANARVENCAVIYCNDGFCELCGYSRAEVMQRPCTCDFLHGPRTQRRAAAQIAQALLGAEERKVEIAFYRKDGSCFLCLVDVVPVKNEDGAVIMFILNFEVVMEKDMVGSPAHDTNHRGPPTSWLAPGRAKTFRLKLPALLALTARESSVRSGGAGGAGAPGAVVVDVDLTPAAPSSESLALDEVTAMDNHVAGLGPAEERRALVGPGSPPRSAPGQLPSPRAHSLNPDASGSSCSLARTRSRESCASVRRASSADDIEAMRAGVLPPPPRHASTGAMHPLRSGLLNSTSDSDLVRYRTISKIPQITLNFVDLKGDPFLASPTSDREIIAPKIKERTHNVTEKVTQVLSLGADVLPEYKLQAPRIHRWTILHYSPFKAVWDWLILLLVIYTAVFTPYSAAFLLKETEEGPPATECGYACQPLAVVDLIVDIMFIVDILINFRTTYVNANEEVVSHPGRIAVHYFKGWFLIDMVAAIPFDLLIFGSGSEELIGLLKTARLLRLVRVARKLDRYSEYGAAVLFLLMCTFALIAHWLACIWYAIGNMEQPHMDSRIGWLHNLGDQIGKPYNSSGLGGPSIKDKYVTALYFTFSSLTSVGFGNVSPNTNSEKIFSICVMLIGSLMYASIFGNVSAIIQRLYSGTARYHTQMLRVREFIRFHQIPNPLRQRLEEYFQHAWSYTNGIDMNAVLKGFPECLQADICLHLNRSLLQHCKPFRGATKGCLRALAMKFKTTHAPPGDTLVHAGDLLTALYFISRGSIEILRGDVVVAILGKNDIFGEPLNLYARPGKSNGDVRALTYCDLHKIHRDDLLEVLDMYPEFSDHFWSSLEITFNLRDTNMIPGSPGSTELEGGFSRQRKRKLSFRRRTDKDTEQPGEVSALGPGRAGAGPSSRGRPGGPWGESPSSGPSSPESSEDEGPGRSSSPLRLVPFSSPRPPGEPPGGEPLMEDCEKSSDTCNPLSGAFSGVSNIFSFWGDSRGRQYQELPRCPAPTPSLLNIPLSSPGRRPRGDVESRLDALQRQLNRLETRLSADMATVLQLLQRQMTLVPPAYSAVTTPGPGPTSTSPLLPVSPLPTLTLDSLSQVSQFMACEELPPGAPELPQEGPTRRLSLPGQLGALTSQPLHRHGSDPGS
row,SMILES,"hERG current change (%, negative = inhibition) at 10uM [%]"
1,Cc1ccc(SCC(=O)Nc2ccc3c(c2)C(=O)NC3=O)cc1,5.88
2,CC/C(=N\Nc1ccc([N+](=O)[O-])cc1[N+](=O)[O-])c1ccc(O)cc1,21.7
3,Cc1cccnc1NC(=O)c1ccc(C(=O)c2ccccc2)cc1,-5.53
4,Cc1ccccc1-c1cc(C(=O)NCC2CC2)nn1CC1CC(c2cccc([N+](=O)[O-])c2)=NO1 (centres unmarked),-26.6
5,Nn1cnnc1N/N=C/c1cc([N+](=O)[O-])c(Cl)cc1Cl,16.8
6,COc1ccc(NC(=S)NC(NC(=O)c2ccccc2Cl)C(Cl)(Cl)Cl)c([N+](=O)[O-])c1 (centres unmarked),14.3
7,CC(=O)c1c(C)[nH]c(C(=O)Nc2nc(-c3ccc(Cl)cc3)cs2)c1C,13.9
8,c1ccc(CCNc2ncnc3sccc23)nc1,26.8
9,O=C(O)c1ccc(/C=C/c2nc3ccccc3c(=O)[nH]2)cc1,17.5
10,C=C(C)c1nc(N)nc(N)n1,8.71
11,CCC(CC)C(=O)Nc1cccc(C(=O)Nc2ccc3c(c2)OCO3)c1,3.33
12,COc1ccc(CCNC(=O)COC(=O)C2CC2C)cc1 (centres unmarked),1.67
13,COc1ccc(NC(=O)c2ccc(C)cc2)cc1,12.6
14,Cc1noc(C)c1CSCC(=O)Oc1ccc(N(C)S(=O)(=O)c2ccc(Cl)cc2)cc1,4.5
15,CCN(CC(=O)Nc1cc(Cl)ccc1C)C(=O)C1COc2ccccc2O1 (centres unmarked),2.66
16,CCN1CCCC1CNC(=O)C1c2ccccc2C(=O)N(CCOC)C1c1ccc(F)cc1 (centres unmarked),20.2
17,CCN(CC(=O)Nc1ccc2c(c1)OCCO2)Cc1cc(=O)n2ccsc2n1,3.88
18,O=C(Cn1nnc(-c2ccccc2Cl)n1)N1CCN(S(=O)(=O)c2ccc(Cl)cc2)CC1,-18
19,COc1ccc(CNS(=O)(=O)c2ccc(-c3ccc(=O)[nH]n3)s2)cc1OC,-29.5
20,CCOC(=O)N1CCN(S(=O)(=O)c2ccc(C(=O)Nc3ccc4c(c3)C(=O)NC4=O)cc2)CC1,-7.82
21,CC1CCN(CCNC(=O)C2CCCN(S(=O)(=O)c3cccc4nsnc34)C2)CC1 (centres unmarked),-19.3
22,CC(C)N(CCCNC(=O)c1ccc(CS(=O)(=O)c2c(Cl)cccc2Cl)o1)Cc1ccccc1,-67.7
23,COc1cccc(CNC(=O)N[C@@H](C)C(=O)O)c1,5.75
24,C=CCC1(Nc2ccccc2)CC(C)N(C)CC1C.O=C(O)C(=O)O (centres unmarked),-21.1
25,O=C(N/N=C/c1ccc(O)cc1)c1ccc(COc2cc(Cl)ccc2Cl)o1,7.07
26,CCn1cc(C(=O)NCCCOC)c(=O)c2cc(S(=O)(=O)N3CCC(C)CC3)ccc21,-10.3
27,CCOc1ccc(N(CC(=O)N/N=C(\C)c2cccc(NC(C)=O)c2)S(=O)(=O)c2ccccc2)cc1,19.5

row,SMILES,"hERG current change (%, negative = inhibition) at 10uM [%]"
1,CCC(C)(CC(=O)O)CC(=O)Nc1cc(C(F)(F)F)cc(C(F)(F)F)c1 (centres unmarked),9.28
2,COc1ccc(CCNC(=O)CC(C)(C)CC2=NS(=O)(=O)c3ccccc3N2)cc1OC,8.15
3,COC(=O)C[C@H]1c2cc(C(F)(F)F)ccc2S(=O)(=O)N1Cc1ccccc1OC,-12.9
4,CC(C)C(OC(=O)CCCC(=O)Nc1nccs1)C(=O)NC1CCCCC1 (centres unmarked),4.8
5,COc1ccccc1NC(=O)CCC(=O)Nc1ccccc1OC,-5.93
6,COC(=O)c1cccn(CC(=O)c2ccc(Cl)cc2Cl)c1=O,-2.24
7,O=C(O)CN1C(=O)/C(=C\c2ccccc2OCc2ccc(F)cc2)SC1=S,-13.3
8,NC(=O)COC(=O)[C@H](Cc1c[nH]c2ccccc12)NC(=O)c1ccc(F)cc1,7.06
9,COc1ccccc1NC(=O)Nc1nc(CC(=O)NCc2ccccn2)cs1,-11
10,COc1ccc(NC(=O)CN(C)C(=O)c2oc3c(ccc4ccccc43)c2C)cc1,-10.8
11,CC1(C)CC(NC(=S)Nc2ccc([N+](=O)[O-])cc2)CC(C)(C)N1,0.0506
12,COc1ccc(CN2CCN(C3CCC3)CC2CCO)c(C)c1C (centres unmarked),0.432
13,COc1cccc(/C(C)=N/N=C(\C)c2cccc(OC)c2)c1,16.7
14,COc1cccc(CC(=O)OCC(=O)N2CCN(c3ccc(F)cc3)CC2)c1,-60.6
15,O=C(O)CC1c2ccccc2C=Cc2ccccc21,10.9
16,CCC(=O)c1ccc(OCC(=O)OCC(=O)N(C)CC(=O)Nc2ccc(F)cc2)cc1,-18.4
17,CC(C)(C)S(=O)(=O)c1cnc(-c2ccccn2)nc1N,5.52
18,N#C[C@]1(S(=O)(=O)c2ccccc2)C[C@@H]2ON=C(c3cccc(Br)c3)[C@@H]2C1,1.79
19,COc1cc(NS(=O)(=O)c2ccc(Br)cc2)c(OC)cc1NC(=O)c1ccco1,-24.4
20,CC(=O)OCC1OC(Sc2cccc3cccnc23)C(OC(C)=O)C(OC(C)=O)C1OC(C)=O (centres unmarked),-13.6
21,O=[N+]([O-])c1ccc(N2CCNCC2)cc1N1CCCCC1,-0.95
22,COC(=O)c1cccc(NC(=O)c2cccc([N+](=O)[O-])c2)c1,-10.4
23,CCN(C(=O)CSc1nnc(-c2ccco2)n1CC)c1c(N)n(Cc2ccccc2)c(=O)[nH]c1=O,-0.0315
24,Cn1c(C(=O)N2CCC(C(N)=O)CC2)cc2cc(Cl)ccc21,-7.5
25,Cc1nc(-c2c(C(F)(F)F)noc2-c2ccc(O)cc2O)cs1,1.55
26,O=C(Cc1ccccc1)Nc1ccc(NC(=O)c2ccco2)cc1Cl,-4.4
